Data on 55 molecules can be found in PMC4336329 (PLoS ONE, 2015).

The campaign covered roughly 310,000 compounds. About 2,200 (0.71%) showed an effect of 50% or more. Effects have a minus sign here. Some of the results follow.

Chain of human ether-à-go-go-related gene (hERG) potassium channel (Q12809 whole entry, looked up): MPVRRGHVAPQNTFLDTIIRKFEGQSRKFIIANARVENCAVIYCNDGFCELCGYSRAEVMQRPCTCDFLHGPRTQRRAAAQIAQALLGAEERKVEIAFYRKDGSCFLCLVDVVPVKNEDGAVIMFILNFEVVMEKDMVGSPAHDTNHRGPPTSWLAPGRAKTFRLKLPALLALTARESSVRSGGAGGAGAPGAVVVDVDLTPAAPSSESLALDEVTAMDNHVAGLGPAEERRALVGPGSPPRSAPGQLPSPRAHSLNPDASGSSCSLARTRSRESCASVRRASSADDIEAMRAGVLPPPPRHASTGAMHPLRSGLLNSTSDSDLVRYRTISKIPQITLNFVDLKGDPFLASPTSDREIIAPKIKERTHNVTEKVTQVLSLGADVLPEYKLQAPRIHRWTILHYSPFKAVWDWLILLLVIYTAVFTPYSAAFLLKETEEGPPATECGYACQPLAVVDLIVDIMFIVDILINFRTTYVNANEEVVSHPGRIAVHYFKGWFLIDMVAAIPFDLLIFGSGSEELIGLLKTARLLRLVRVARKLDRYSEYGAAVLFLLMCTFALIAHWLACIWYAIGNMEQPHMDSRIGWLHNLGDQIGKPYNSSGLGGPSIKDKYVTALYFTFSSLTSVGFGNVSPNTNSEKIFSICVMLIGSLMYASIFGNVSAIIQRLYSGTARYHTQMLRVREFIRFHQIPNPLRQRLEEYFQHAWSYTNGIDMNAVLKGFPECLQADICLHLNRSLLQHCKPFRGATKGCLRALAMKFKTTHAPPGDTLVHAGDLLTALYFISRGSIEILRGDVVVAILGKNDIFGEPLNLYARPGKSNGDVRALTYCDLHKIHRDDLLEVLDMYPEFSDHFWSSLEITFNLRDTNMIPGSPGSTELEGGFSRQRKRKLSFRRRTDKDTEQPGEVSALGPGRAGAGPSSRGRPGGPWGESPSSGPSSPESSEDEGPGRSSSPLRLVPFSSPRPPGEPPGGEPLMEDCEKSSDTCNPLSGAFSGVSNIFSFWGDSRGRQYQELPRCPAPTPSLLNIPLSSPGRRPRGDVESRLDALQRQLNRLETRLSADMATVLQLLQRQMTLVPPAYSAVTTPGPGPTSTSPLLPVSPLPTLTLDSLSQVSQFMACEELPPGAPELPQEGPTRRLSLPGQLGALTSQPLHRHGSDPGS

The test concerns the target human ether-à-go-go-related gene (hERG) potassium channel (human, UniProt Q12809). Kind of test: primary screen, population patch clamp on CHO cells stably expressing hERG.
On to `S=C(NC1CCCCC1)NC1CC2CCC(C1)N2Cc1ccccc1` (stereo not shown), for which the “hERG current change (%, negative = inhibition) at 1uM” value was found to be 1.28%.
Next, `O=C(NCc1ccccc1)C1CCN(S(=O)(=O)c2ccc(N3CCCC3=O)cc2)CC1`: 6.4%.
For `CCC1(c2ccc(Cl)cc2)NC(=S)N(c2ccc(C)c(C)c2)N1` (stereo not shown) the value was 12.3%; for `CCOc1cc(/C=N/NC(=O)c2ccccc2OCc2ccc(F)cc2)ccc1O`, 11.5%.
Next, `Cn1c(C(=O)N2CCN(c3ccccn3)CC2)cc2ccccc21`: 11.5%.
With `Oc1ccc(-c2nnc(Nc3cccc(O)c3)c3ccccc23)cc1`, the “hERG current change (%, negative = inhibition) at 1uM” value is listed as 10.2%.
For `CCOC(=O)N1CCN(C(=O)CSc2nc3ccccc3c(=O)n2-c2ccccc2)CC1` the value was -3.97%; for `CC(C)(C)n1nnnc1C(c1ccncc1)N1CCN(C2CCCCC2)CC1` (stereo not shown), 10.1%.
`O=C(NCc1cccs1)C(=O)c1cn(CC(=O)N2CCOCC2)c2ccccc12`: the “hERG current change (%, negative = inhibition) at 1uM” value is on record as 20.6%.
Next, `CN(C(=O)c1ccc(Cl)c([N+](=O)[O-])c1)C1(C)CCS(=O)(=O)C1` (stereo not shown): 5.16%; `CC(C)CN(C(=O)CSc1ncnc2ccccc12)C1CCS(=O)(=O)C1` (stereo not shown): 5.26%; `COc1ccc(N2C(=O)C(F)(F)C2c2cccc(F)c2)cc1` (stereo not shown): 13.1%.
Consider `CCN(Cc1cc(OC)c(OC)c(OC)c1)C(=S)Nc1cccc(SC)c1`, for which the “hERG current change (%, negative = inhibition) at 1uM” value came to 5.8%.
Consider `Cc1ccccc1-n1c(C)nnc1SCC(=O)N1CCc2ccccc2C1`, for which the “hERG current change (%, negative = inhibition) at 1uM” value was -1.04%.
Next, `COc1ccc(OCC(=O)NC2CC(C)(C)NC(C)(C)C2)cc1`: 14.8%; `O=C(CSCc1ccc(Cl)cc1)Nc1cc([N+](=O)[O-])ccc1O`: 21.7%.
For `Cc1ccccc1OCCCn1c(=O)sc2ccccc21` the value was 15.7%.
Regarding `CCCCN(CCCC)S(=O)(=O)c1ccc(NC(=O)c2ccc([N+](=O)[O-])cc2Cl)cc1`, the “hERG current change (%, negative = inhibition) at 1uM” value is reported as 17.5%.
`O=C(O)CCC(=O)NNc1nc2ccccc2nc1-c1ccccc1`: the “hERG current change (%, negative = inhibition) at 1uM” value was 3.77%.
For the molecule `COc1ccc(CNC(=O)C2CCN(c3nnc(N4CCCC4=O)s3)CC2)cc1`, the “hERG current change (%, negative = inhibition) at 1uM” value is reported as 1.91%.
On to `O=C(/C=C/c1ccccc1)NC(NC(=S)Nc1ccc(C(=O)O)cc1)C(Cl)(Cl)Cl` (stereo not shown), for which the “hERG current change (%, negative = inhibition) at 1uM” value amounted to 9.18%.
Next, `O=C(/C(=C(\[O-])c1ccccc1)[n+]1ccc2ccccc2c1)c1ccc(Cl)cc1`: 9.21%; `O=C(CCC1CCCN(C(=O)C2(c3ccccc3)CC2)C1)N1CCN(c2ccccn2)CC1` (stereo not shown): 7.52%; `CCOc1ccccc1/C=C(/NC(=O)c1ccccc1)C(=O)N1CCCCC1`: -24.7%.
On to `CCCNC(=O)c1ccccc1NC(=O)CSCc1ccc(OC)cc1`, for which the “hERG current change (%, negative = inhibition) at 1uM” value stood at 24.5%.
Next, `CCC1CCCCN1C(=O)Cn1c(=O)n(CCC(=O)NCc2ccco2)c(=O)c2sccc21` (stereo not shown): 8.58%; `Cc1ccc(CSCCNC(=O)/C=C/c2ccc(Cl)cc2)cc1`: 6.93%; `Cc1ccc(NC(=O)[C@H](NC(=O)[C@@H]2Cc3ccccc3CN2)c2ccccc2)c(C)c1`: 3.4%.
Take `O=C(Nc1ccc2c(c1)OCCO2)N1CCN(Cc2ccccc2)CC1`: the “hERG current change (%, negative = inhibition) at 1uM” value was 10.4%.
As to `CC(=O)Nc1ccc(S(=O)(=O)NCCc2ccccn2)cc1`, the “hERG current change (%, negative = inhibition) at 1uM” value is on record as 9.03%.
As to `COc1ccc2c(COC(=O)c3n[nH]c4ccccc34)cc(=O)oc2c1`, the “hERG current change (%, negative = inhibition) at 1uM” value was -0.848%.
For `CCOc1ccc(NC(=O)CCNC(=O)c2ccc(Br)cc2)cc1` the value was 11.7%; for `CN1CCN(C(=O)c2ccc3c(c2)NC(=O)/C(=C/c2ccccc2)S3)CC1`, 12.9%.
For `O=C(CNC(=O)C1CCCCC1)NC1=NCCS1`, the “hERG current change (%, negative = inhibition) at 1uM” value worked out at 12.2%.
For `CCCCC(=O)Nc1ccc(C(=O)NNC(=O)CCCOc2ccc(Cl)cc2Cl)cc1` the value was 6.1%; for `COC(=O)C(Cc1ccc(OC(=O)c2ccccc2C)cc1)N1Cc2ccccc2C1=O` (stereo not shown), 6.47%.
Next, `Cc1ccc(-n2ncc3c2CC(C)(C)CC3NC(=O)CCCN2CCCC2=O)cc1` (stereo not shown): 10.8%.
Next, `CC1(C)Cc2[nH]c3ccccc3c2C(C)(C)N1.Cl`: 8.42%.
Consider `[Cl-].c1ccc(C[n+]2c(-c3ccccc3)csc2Nc2ccccc2)cc1`, for which the “hERG current change (%, negative = inhibition) at 1uM” value stood at 20.3%.
As to `COc1ccc(OC)c(CN2CCCC(CCC(=O)N(C)CCc3ccccn3)C2)c1` (stereo not shown), the “hERG current change (%, negative = inhibition) at 1uM” value is 9.19%.
`O=C(C1CCCN(S(=O)(=O)c2ccc(Br)cc2)C1)N1CCOCC1` (stereo not shown): the “hERG current change (%, negative = inhibition) at 1uM” value stood at 8.77%.
Consider `CCN(CC(=O)NCc1cccs1)C(=O)c1cccc(S(=O)(=O)Nc2cccc(C)c2)c1`, for which the “hERG current change (%, negative = inhibition) at 1uM” value is listed as 7.8%.
Next, `Cc1ncc([N+](=O)[O-])n1CCOC(=O)c1ccc(Br)cc1`: -1.68%; `Cc1ccc2c(c1)c1c(n2CC(O)CNC2CCCC2)CCCC1.O=C(O)C(=O)O` (stereo not shown): 8.68%.
Next, `COc1cc(C)ccc1OCc1cc(C(=O)N2CCC(c3ccc(F)cc3)C2)no1` (stereo not shown): 8.54%; `N#CCCn1[nH]c(-c2ccccc2)cc1=O`: 9.2%.
For `COC(=O)[C@H](CC(C)C)NC(=O)NCCCc1ccccc1` the value was 9.37%; for `Cc1sc2nc(CN3CCOCC3)nc(NCCc3ccccc3)c2c1C`, -13.5%; for `COc1nc(NS(=O)(=O)c2ccc(C)cc2)nc(C)c1Cl`, 4.32%.
With `COc1ccc(S(=O)(=O)Nc2cc(C(=O)NCCCN3CCOCC3)ccc2N2CCOCC2)cc1`, the “hERG current change (%, negative = inhibition) at 1uM” value came out at 23.7%.
For the molecule `CCc1ccc(-c2cn3c(n2)SCC3)cc1`, the “hERG current change (%, negative = inhibition) at 1uM” value is reported as 14.8%.
Next, `COc1ccc(CCNC(=O)CSc2nc3[nH]ncc3c(=O)n2-c2cccc(C(F)(F)F)c2)cc1OC`: 21.4%; `N/C(CC(=O)NCCOc1ccccc1)=N\O`: -5.86%.
For `COc1cccc(C(=O)Nc2ccccc2C(=O)N2CCCC2)c1` the value was 1.14%; for `COc1ccc(OC)c(-c2cc(C(=O)N/N=C/c3cc(OC)c(OC)cc3OC)c3ccccc3n2)c1`, 10.2%.
